Source: PubChem BioAssay AID743279 (National Center for Advancing Translational Sciences (NCATS), 2014)
Among all 360,000 compounds or so, about 17,000 (4.7%) were called active. The shares of active, inactive and inconclusive entries below differ from those in the screen. Cut-off read from the data, not from the text of the source: active = activity change below about -50%; inconclusive = mostly about -30% to -49%; inactive = weaker than that.

Test: qHTS for Inhibitors of Inflammasome Signaling: IL-1-beta AlphaLISA Primary Screen
Conditions: THP-1 LPS/ATP IL-1B secretion, 16 h; at 57.5 µM, active compounds read low
Method in brief: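 THP-1 cells pretreated 1 hr with compounds (up to 57.5 uM final), then stimulated with LPS (250 ng/mL final) plus ATP (1.25 mM final); secreted IL-1B measured by AlphaLISA after 16 hr, decreased signal indicating inhibition.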
% is set by controls: 0 for no effect and ±100 for the full control effect.

Activity change, inactive:
CCCNC(=O)c1ccc(C)c(NC(=O)C2=C(C)OCCS2)c1 5.74%, CCc1cccc(N(C(=O)c2csnn2)C(C(=O)NC2CCCCC2)c2ccncc2)c1 (stereo not given) -4.79%, CCN(CC)c1ccc([N+](=O)[O-])cc1C(=O)N1CCOCC1 -1.51%, CNC(=O)c1c(NC(=O)CS(=O)(=O)c2ccccc2)sc(C)c1C -17.1%, CCOC(=O)N1CCN(C(=O)COC(=O)C2CCN(S(=O)(=O)c3c(Cl)cccc3Cl)CC2)CC1 8.8%, Cc1nc2c3cc(Cl)ccc3n(CCN3CCOCC3)c2s1 -23.4%, S=C(Nc1ccccc1)N1CCn2c(nc3ccccc32)C1 37%, COc1ccc(CCNc2nc(-c3sc(N)nc3C)cs2)cc1OC 0%, CC(C(O)c1cc(=O)c(OCc2ccccc2)co1)[N+](=O)[O-] (stereo not given) -1.39%, O=C(CSc1nnc(Cn2c(=O)sc3ccccc32)n1-c1ccccc1)Nc1nccs1 -9.19%, CC(C)NC(=O)COc1ccc(S(=O)(=O)N2CCOCC2)cc1 -2.7%, Cc1ccc(C)c(NC(=O)Cn2ccn(-c3ccc4c(c3)OCO4)c(=O)c2=O)c1 6.46%, CC(=O)Nc1ccc(S(=O)(=O)N2CCN(CCN3CCOCC3)CC2)cc1Cl -0.104%, Cc1ccc(C(=O)/C=C/N(C)C)cn1 21.2%, Cc1nc(N)nc(Nc2ccc(C#N)cc2)c1Br -4.98%, O=C1c2ccccc2S(=O)(=O)N1CCOc1ccccc1 4.98%, O=C1NC(=O)/C(=C/c2ccccn2)S1 9.09%, CCCCN(C(=O)Cc1cccc(F)c1)c1c(N)n(CCC)c(=O)[nH]c1=O -1.32%

Activity change, active:
COc1ccc(C=C2C=C(C(C)(C)C)C(=O)C(C(C)(C)C)=C2)cc1OC -95.6%, O=C(N/N=C/c1ccc(-c2ccc([N+](=O)[O-])cc2)o1)C(O)c1ccccc1 (stereo not given) -249%, CN1CCN(CCCNC(=O)c2ccc3c(Cl)c4c(nc3c2)CCCC4)CC1 -55.9%, COc1ccc(/C=C/C(=O)C2(O)CCCCC2)cc1OC -91.4%, CCCCN(C(=O)CSc1cc(C)c2ccccc2n1)c1c(N)n(Cc2ccccc2)c(=O)[nH]c1=O -59.2%, CC1(C)Oc2ccc3ccc(=O)oc3c2/C(=C/Nc2ccc(O)cc2)C1=O -80.6%, COC(=O)COc1ccc(/C=N/NC(=O)CN(c2ccccc2OC)S(=O)(=O)c2ccccc2)cc1 -96.4%, COc1ccc(C(=O)NNC(=O)c2ccc3ccccc3n2)cc1 -98.2%, Cc1ccc(CN2CCN(/N=C/C=C/c3ccccc3[N+](=O)[O-])CC2)cc1 -89.1%, O=C1c2ccccc2C(=O)c2c(NCCCN(CCO)CCO)cccc21 -103%

Activity change, inconclusive:
Cc1ccc(O)c(CNc2ccc(S(=O)(=O)Nc3nccs3)cc2)c1 -39.3%, NC(c1csc(Nc2nccc(C(F)(F)F)n2)n1)C1CCCCC1 (stereo not given) -30%, O=C(NCc1ccccc1)C12CN(Cc3ccccc3)CC1C(c1ccc([N+](=O)[O-])cc1)=NO2 (stereo not given) -32.7%, COc1cccc(-c2nnc3sc(-c4ccco4)nn23)c1 -36.8%, COc1cccc(C2C(C#N)=C(N)OC3=C2C(=O)CC(c2ccco2)C3)c1OCc1ccc(F)cc1 (stereo not given) -48.2%, C/C(CCc1oc2ccc(Br)cc2c1-c1ccc(C)o1)=N/O -41.9%, COC(=O)/C=C1/SC(=NC(=O)c2cccc([N+](=O)[O-])c2)NC1=O -44.5%, CSc1ccc(Cl)c(C(=O)Nc2ccc(OCC(N)=O)cc2)c1 -35%, Cc1ccc(NC(=O)C2C3C=CC4(O3)C2C(=O)N(CCCN2CCCCC2)C4C(=O)NC2CCCCC2)cc1Cl (stereo not given) -42.9%, Cc1nc(Nc2ccc3c(c2)OCCO3)c2nnn(Cc3ccccc3Cl)c2n1 -45%, COCCNC(=O)c1ccc2c(c1)nc(C)n2-c1cccc(Cl)c1 -46.1%, CCc1c(C)nc2cc(-c3cc(OC)cc(OC)c3)nn2c1N1CCN(CCN2CCOCC2)CC1 -43.8%, CCCN1C(=O)c2ccc(C(=O)NCc3ccco3)cc2C1=O -32.9%, COc1ccc(CC(=O)N/N=C/c2ccc(-c3ccc(F)cc3)o2)cc1OC -45.2%, COc1ccccc1-c1nnc(SC/C(O)=C(\C#N)c2nc3ccccc3[nH]2)n1C1CCCCC1 -33.6%, CC(C)(C)c1ccc(C(=O)NC(=S)Nc2nc3c(s2)CCCC3)cc1 -34.1%, O=[N+]([O-])c1ccc(CS(=O)(=O)c2ccc(Cl)cc2)cc1 -34.8%, CCN(CC)CCNc1ncnc2c1sc1nc(N3CCOCC3)c3c(c12)CCCC3 -44.7%, Cc1ccccc1NS(=O)(=O)c1cc(C(=O)Nc2cccc([N+](=O)[O-])c2)ccc1C -45.2%, CC(OC(=O)c1ccc([N+](=O)[O-])o1)C(=O)Nc1nc(-c2ccc(F)c(F)c2)cs1 (stereo not given) -46.7%, O=C(NCc1ccco1)C1Cc2ccccc2CN1C(=O)c1ccco1 (stereo not given) -46.1%, O=C(Nc1ccc(Cn2cccn2)cc1)c1ccc(COc2cccc(Br)c2)cc1 -30%, Cc1cccc(OCC(=O)N/N=C/c2cn[nH]c2-c2ccc(Cl)c(Cl)c2)c1 -30%, CCCc1cc(C(N)=O)c(NC(C)=O)s1 -31.2%, Cn1c(C(=O)N2CCN(c3ccc(Cl)cc3)CC2)cc2c(=O)[nH]c3ccccc3c21 -33%, Cc1cccc(CC(C)NC(=O)c2cc(COc3ccc(C)c(C)c3)on2)n1 (stereo not given) -46.8%, O=C(CSc1nnc(-c2ccccc2Cl)o1)N1CCCCC1 -34.8%
